Results: publication PMC12136788
The other results are listed elsewhere or left out.

B1: chr10:73917138:73917420:+|3pUTR|ENSG00000122861|msi1|FALSE|unique (ssRNA)
RNA: GGGAGUUCUACAGUCCGACGAUCGGAAUGUAUUAUUCUGCAGCAUGACCUGUGACCAGCACUGUCUCAGUUUCACUUUCACAUAGAUGUCCCUUUCUUGGCCAGUUAUCCCUUCCUUUUAGCCUAGUUCAUCCAAUCCUCACUCAACAGAGGAUUGAGCAUCA
B2: chr2:1632407:1632508:-|3pUTR|ENSG00000130508|msi1|FALSE|unique (ssRNA)
RNA: GGGAGUUCUACAGUCCGACGAUCUUGGUAAGUGAUUGAUAAAAAUUGGUUGGUGUUUCAUGACAUGUGGACUUCUUUUGAAAUAGCAAGUCAAAUGUAGUGACCAAAUUGUGGAAGAGAUUUCUGUCAAAUAGGAAAUGUGUACAACAGAGGAUUGAGCAUCA
B3: chr1:10469171:10469279:-|CDS|ENSG00000160049|unk|total|mutant (ssRNA)
RNA: GGGAGUUCUACAGUCCGACGAUCGUGGAUGAUGACGAUUACUUUCUGUGUCUACCUUCCAAUACUAAGUUUGUGGCAUUGGCCCGUAAUGAGAAAUGGGCAUACAACAAUUCAGGUAAGAAACUCCCGCCAUGUAUAAAACGGCAACAGAGGAUUGAGCAUCA
B4: chr11:113738268:113738383:-|CDS|ENSG00000086827|unk|FALSE|unique (ssRNA)
RNA: GGGAGUUCUACAGUCCGACGAUCUGCUUUUUGGCCCAAAUGCGGGCACAGAAAGGUGAACUUCUGGAAAGAUUAUCAAGUGCUAGGAACUUUUCAAAUAUGGACGAUGAAGAGAAUUAUUCUGCAGCAAGUAAAGCAGUCCGGCAACAGAGGAUUGAGCAUCA
B5: chr19:44386474:44388102:-|CDS|ENSG00000267508|control|control|control (ssRNA)
RNA: GGGAGUUCUACAGUCCGACGAUCGGCAUGUGGUAAGGGCUUCAGUCGUAAUUCAUACCUCCUUGCCCAUCAGAGAGUGCAUAUAGAUGAGACACAGUACACACACUGUGAGCGUGGAAAGGACCUUCUGACUCAUCAAAGACUCAACAGAGGAUUGAGCAUCA
B6: chr1:180885316:180885399:+|3pUTR|ENSG00000143324|msi1_unk|FALSE|overlapping (ssRNA)
RNA: GGGAGUUCUACAGUCCGACGAUCUUGGCAGCCAUUUCUCCCAGCAGUUUUAAAGGAUGAACAUUGGAUUUCAUGCCAUCCCAUAGAAAACCUGUUUUAAAAUUUUAGGGAUCUUUACUUGGUCAUACAUGAAAAGUACACUGCCAACAGAGGAUUGAGCAUCA
B7: chr10:103999120:103999255:+|CDS|ENSG00000065613|unk|FALSE|unique (ssRNA)
RNA: GGGAGUUCUACAGUCCGACGAUCAUCUAAGGACAGACCCUAUGACUACAAAGCUGAUGUUUGGUCCCUGGGUAUCACUUUAAUAGAAAUGGCUGAGAUAGAACCACCUCAUCAUGAAUUAAAUCCAAUGCGAGUGCUGCUAAACAACAGAGGAUUGAGCAUCA
B8: chr4:4235611:4235720:-|3pUTR|ENSG00000132406|unk|total|mutant (ssRNA)
RNA: GGGAGUUCUACAGUCCGACGAUCAUGACCGUUUUGUCCGGUGACAGGACCAAAUGAAAAUAUUUUAUGUUUUCUCAUCACUUCCGAUUUUAUCAUUAUGUACAUUACUGGGUUUUCCGCAUUUCCUAAUGUGAAGUUUUAAUCCAACAGAGGAUUGAGCAUCA
B9: chr1:205790044:205790145:-|3pUTR|ENSG00000133065|msi1|FALSE|bound_elsewhere (ssRNA)
RNA: GGGAGUUCUACAGUCCGACGAUCAGAUUCUUCUGCCUCUUUCUCCUUUCCAGACCCCUACUCUGUGCAGUGCUGACCACAGCUAGAGCCACCGCCCCAUUGCUCAACCAGUAUUUAUUUCCCUAAACGACCCUUCCUCACAUUCAACAGAGGAUUGAGCAUCA
B10: chr7:128862928:128863052:+|CDS|ENSG00000128524|unk|total|mutant (ssRNA)
RNA: GGGAGUUCUACAGUCCGACGAUCUAAGCUCAUCGCAGUGAUCGGAGACGAGGACACGGUGACUGGUUUCCUGCUGGGCGGCACCGGGGAGCUUAACAAGAACCGCCAUCCCAAUUUCCUGGUGGUGGAGAAGGAUACAACCAUCAACAGAGGAUUGAGCAUCA
B11: chr2:111862450:111862553:-|CDS|ENSG00000153107|unk|total|mutant (ssRNA)
RNA: GGGAGUUCUACAGUCCGACGAUCUCUUUUUCAGGGGUGCAAAGGUUCAACAUUUCAAGCCAUAAUCAGUCUCCAAAGAGACACCGUAUUUCUCAUUCUCCAAACCGUAAUUCUAAUGGCUCCUUUCUUGCACCAGAAACGGAGCAACAGAGGAUUGAGCAUCA
B12: ENSG00000198589:be:win_8101|CDS|ENSG00000198589|bound_else_gene|NA|bound_elsewhere_windowed (ssRNA)
RNA: GGGAGUUCUACAGUCCGACGAUCGUGUUGAGUGGUUCACAAGAAGGACCAUGUCUCAUACAUUCCAUGAAUGGAGACUUGUUGAGGACCUUGGAGGGUCCUGAAAACUGCCUGAAACCAAAACUCAUUCAGGCUUCAAGAGAGCAACAGAGGAUUGAGCAUCA
B13: chr17:18931026:18931127:+|3pUTR|ENSG00000141127|msi1|total|mutant (ssRNA)
RNA: GGGAGUUCUACAGUCCGACGAUCGAUACCUGCAAUUGAAAAGCCGAAAAGAUUAUACUGUCAAGUCCAGUAAAUGACAUUUUCCGAGAUGCUUUUGCCGACAAGCAUAUGGAAUAUGUGAUUGUAUUUAUUUUCUGCAACUAACAACAGAGGAUUGAGCAUCA
B14: chr14:53951422:53951790:-|three_prime_utr|ENSG00000125378|control|control|control (ssRNA)
RNA: GGGAGUUCUACAGUCCGACGAUCUUUGGAGACAGAGGGGGAGGUGUUCAGGGGAAGGGGAAUGACAGCACUCAGACGUGGGCUAGCCCCAGCGGUGUGUUUUUGCUAUAUCAAAGCCUUUUCUGCUAGGUUUUCUGCCCGUUUCAACAGAGGAUUGAGCAUCA
B15: chr16:31060842:31061067:-|three_prime_utr|ENSG00000167394|control|control|control (ssRNA)
RNA: GGGAGUUCUACAGUCCGACGAUCCCGGGAGCCCAGCCCCCAUCGGGGGCUUCCUGUACCUCCUUUUGCCUGGCUCUGCUCUUUAGACUCCAGAUCCCUACCCCUCAGCAACUAGCUCCCCUGUCGGCCAGCUAAGAGAGCUGGCAACAGAGGAUUGAGCAUCA
B16: chr5:93620789:93620892:-|3pUTR|ENSG00000113391|unk|FALSE|unique (ssRNA)
RNA: GGGAGUUCUACAGUCCGACGAUCCAGCCCCUCAUUAGAUUGUUUUCUUCCCAGAGCCCAGGGUCGUGAUAUAUACAUCUAAAUAGCGUUUUGCAUUAUUUCUAGAUGAGUGCAACUGUCAAAGCAAUAUGGGUUCACUGGUCGCAACAGAGGAUUGAGCAUCA
B17: chr11:61866713:61866887:+|3pUTR|ENSG00000134824|msi1|FALSE|unique (ssRNA)
RNA: GGGAGUUCUACAGUCCGACGAUCCUCUCCUGUCUGAACCUGCCCUUACUGUGUUUAACCUGUUGCUCCAGGAUGCAUUCUGAUAGGAGGGGGCGGCAGGGCUGGGCCUUGUGACAAUCUGCCUUUCACCACAUGGCCUUGCCUCAACAGAGGAUUGAGCAUCA
B18: chr10:15076158:15076259:-|3pUTR|ENSG00000176244|unk|FALSE|unique (ssRNA)
RNA: GGGAGUUCUACAGUCCGACGAUCAGAUCCCUUAAGAUAAAUAUCCCCCAAAACAGUGUACCUCUAUUCCCUGCAUAAAAAUUUAGAUUUGGAAUGGUAUGACCAGAGGAAUAGAUCCACUUCAUGUUACUACAACAACAAAACCAACAGAGGAUUGAGCAUCA
B19: chr18:9859767:9859850:+|3pUTR|ENSG00000168461|msi1_unk|FALSE|overlapping (ssRNA)
RNA: GGGAGUUCUACAGUCCGACGAUCUUGUUACCUAACCAACCUUCACUGAAAGGCAAAUUUAGUUCAGGAGGUUAGUUUUUAGCUAGCUUUGGAAGUAAGCCUUUAUUUAUUACUUUUUGGAGGAAAUCAGAGAAGUGUCAAUGGCAACAGAGGAUUGAGCAUCA
B20: chr17:41586309:41586834:-|CDS|ENSG00000186847|control|control|control (ssRNA)
RNA: GGGAGUUCUACAGUCCGACGAUCGCCUGCGGGCUGGGGGGCGGCUAUGGCGGUGGCUUCAGCAGCAGCAGCAGCAGCUUUGGUAGUGGCUUUGGGGGAGGAUAUGGUGGUGGCCUUGGUGCUGGCUUGGGUGGUGGCUUUGGUCAACAGAGGAUUGAGCAUCA
B21: chrX:72139229:72139330:+|CDS|ENSG00000204131|unk|total|mutant (ssRNA)
RNA: GGGAGUUCUACAGUCCGACGAUCUCCCUCCGUGCCCAGCAAGAGGCCCAGCACAGAAGGCAGAGGUCCAAGAGUAUCUCACUCCGGAAGGCCAAAAAGAAGCCUUCCCCACCCACACGCAGUGUCUCACUGGUCAAAGAUGAGCAACAGAGGAUUGAGCAUCA
B22: chr8:93922960:93923061:+|CDS|ENSG00000164951|msi1|FALSE|unique (ssRNA)
RNA: GGGAGUUCUACAGUCCGACGAUCCGGCUCAUGGUCAGCAGUCACGCUGUCUAAUGACCACAAUGCUCAAAAUGAAAGAGAACUAGAACGGCUGAAAUUGGAACAUCCAAAGAGUGAGGCCAAGAGUGUCGUGAAACAGGAUCGCAACAGAGGAUUGAGCAUCA

The binders below were run against MSI1 full-length (mouse, UniProt Q61474 1-362) (assay: nsRBNS (natural sequence RNA bind-n-seq); RBNS binding buffer (assumed for nsRBNS): 25 mM Tris pH 7.5, 150 mM KCl, 3 mM MgCl2, 0.01% Triton X-100, 500 ug/ml BSA, 20 U/ml SUPERase-In, 4 C; UNK is unkempt and MSI1 is Musashi-1; names of the RNAs are library labels; protein concentration not given here; high values mean tight binding).
UniProt Q61474, sequence (Q61474 whole entry): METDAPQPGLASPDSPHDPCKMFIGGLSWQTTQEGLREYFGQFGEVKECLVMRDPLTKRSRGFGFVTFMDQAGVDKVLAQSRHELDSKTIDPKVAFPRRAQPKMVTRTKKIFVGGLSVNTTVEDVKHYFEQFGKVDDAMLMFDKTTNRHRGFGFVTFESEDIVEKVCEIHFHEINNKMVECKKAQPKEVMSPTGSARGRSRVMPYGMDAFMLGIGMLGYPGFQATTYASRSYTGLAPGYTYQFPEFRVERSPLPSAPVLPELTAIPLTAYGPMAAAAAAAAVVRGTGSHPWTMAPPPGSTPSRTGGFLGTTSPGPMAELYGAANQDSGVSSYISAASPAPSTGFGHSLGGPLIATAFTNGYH

Binder | binding signal [enrichment R]
B1 | 2.41
B2 | 3.01
B3 | 0.527
B4 | 0.479
B5 | 0.494
B6 | 0.583
B7 | 0.522
B8 | 0.581
B9 | 1.33
B10 | 0.398
B11 | 0.402
B12 | 0.257
B13 | 0.356
B14 | 0.64
B15 | 0.691
B16 | 1.17
B17 | 0.45
B18 | 2.52
B19 | 1.95
B20 | 0.768
B21 | 0.452
B22 | 0.399
